Experimental data as given in PubChem BioAssay AID588795 (National Center for Advancing Translational Sciences (NCATS), 2011).
Where “and” joins values, the source holds several entries; their conditions need not be identical. Identical values can stand only once. Hit rate of the full screen: of about 390,000 compounds, about 1,400 (0.36%) were called active. Inconclusive results, whose numbers are uncertain, are shown with a selection of clear calls. The call rests on the fitted dose curve; in most records, active means well fitted inhibition curve with a large enough effect; inconclusive means small, poorly fitted or top-dose-only effect; inactive means no such curve, though single readings can be large or run the other way. Potencies of inconclusive entries are doubtful fits and often do not repeat.

target: Flap endonuclease 1 (Homo sapiens) (UniProt P39748); assay: qHTS Assay for the Inhibitors of Human Flap endonuclease 1 (FEN1).; further: nearly all actives have a fitted effect of over 65% in size; conditions: Recombinant FEN1 flap cleavage, fluorescence, 15 min; series mostly up to 114 µM
How it was run: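 Reaction started by adding substrate (50 nM final) to 10 nM enzyme after 15 min room-temperature compound preincubation. Reads at 0 and 15 min, with data normalized and fitted to a four-parameter Hill equation.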
Potency means the concentration at half of the fitted maximal effect; tags describe the fitted curve by direction and shape.

UniProt P39748, sequence (P39748 whole entry, looked up): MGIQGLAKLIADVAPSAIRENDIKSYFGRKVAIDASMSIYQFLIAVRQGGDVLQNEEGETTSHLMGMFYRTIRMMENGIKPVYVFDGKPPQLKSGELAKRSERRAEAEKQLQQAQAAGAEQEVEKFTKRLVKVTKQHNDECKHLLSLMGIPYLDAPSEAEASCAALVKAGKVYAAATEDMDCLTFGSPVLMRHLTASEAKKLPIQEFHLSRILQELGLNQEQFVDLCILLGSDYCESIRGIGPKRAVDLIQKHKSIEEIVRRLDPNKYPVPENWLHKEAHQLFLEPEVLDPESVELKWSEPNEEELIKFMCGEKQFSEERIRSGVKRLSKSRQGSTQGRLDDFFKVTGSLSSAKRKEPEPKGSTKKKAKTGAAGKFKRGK

| SMILES | Potency |
| --- | --- |
| O=C(COC(=O)c1cc(-c2cccc3ccccc23)nc2ccccc12)NC1CCS(=O)(=O)C1 (configuration not stated) | inconclusive: 35.5 µM [inhibitor, full curve] |
| O=C(Nc1ccc2nc(-c3ccc4nc[nH]c4c3)[nH]c2c1)c1cccs1 | active: 44.7 µM |
| CN(C)c1ccc(/C=C/c2ccc3ccccc3[n+]2C)cc1 | active: 39.8 µM |
| Cc1cccc(-c2noc(CN(C(=O)COc3ccc(C(C)C)cc3)C(C)C)n2)c1 | inactive |
| CNc1cc(C(=O)O)nc2ccccc12 | inactive |
| CCOc1ccc(-c2nc(CSCC(=O)N3CCN(c4cccc(C(F)(F)F)c4)CC3)c(C)o2)cc1 | inconclusive: 25.1 µM [inhibitor, partial curve, poor fit] |
| COc1cccc2oc3ccc(C#CC4(N)CCCCC4)cc3c(=O)c12 | inconclusive: 50.1 µM [inhibitor, partial curve, poor fit] |
| O=S(=O)(O)c1ccc(O)c2cc(Nc3ccccc3)ccc12 | active: 7.94 µM |
| Cc1cc(C)[n+](C)c2ccccc12 | inconclusive: 56.2 µM [inhibitor, partial curve, poor fit] |
| O=C(Nc1ccc(-c2nc3ccc(NC(=O)c4cccs4)cc3[nH]2)cc1)c1cccs1 | inconclusive: 44.7 µM [inhibitor, partial curve, poor fit] |
| C#CCOc1ccc(C2C(C(=O)OC)=C(C)NC3=C2C(=O)c2ccccc23)cc1OCC (configuration not stated) | inactive |
| CCOc1ccc(NC(=O)CSc2nnc(CC)c(CC)n2)cc1 | inactive |
| COc1cc([N+](=O)[O-])cc(/C=C2/SC(=S)N(Cc3ccccc3)C2=O)c1O | active: 15.8 µM |
| CCCCCCCCCCCCCCCC(=O)NCC(COP(=O)([O-])OCC[N+](C)(C)C)OCC (configuration not stated) | inconclusive: 8.44 µM [inhibitor, single point] |
| CC(C)c1ccc(NC(=O)C(c2ccc3c(c2)OCO3)N2CCC3(CC2)OCCO3)cc1 (configuration not stated) | inconclusive: 50.1 µM [inhibitor, partial curve, poor fit] |
| Cc1ccc2nnn(Cc3cccc(C(C)(C)C)c3O)c2c1 | inconclusive: 35.5 µM [inhibitor, partial curve, poor fit] |
| COc1ccc2[nH]c3c(NCc4ccco4)ncnc3c2c1 | inconclusive: 89.1 µM [inhibitor, single point] and inconclusive: 44.7 µM [inhibitor, partial curve, poor fit] |
| CCOC(=O)c1sc(Nc2nc3c(OC)cccc3s2)cc1C | inconclusive: 25.1 µM [inhibitor, partial curve, poor fit] |
| O=C1CC(c2ccccc2)Cc2[nH]c(=O)c(-c3nc(-c4ccc(F)cc4)cs3)cc21 (configuration not stated) | inconclusive: 35.5 µM [inhibitor, single point] |
| CC(=O)Nc1ccc(S(=O)(=O)N2CCSC2c2ccc(Cl)cc2)cc1 (configuration not stated) | inconclusive: 56.2 µM [inhibitor, partial curve, poor fit] |
| COc1cc(-c2nc3ccccn3c2/N=C/c2cc(OC)c(O)cc2Cl)ccc1O | inconclusive: 56.2 µM [inhibitor, partial curve, poor fit] |

| SMILES | Potency |
| --- | --- |
| N#C/C(=C\c1ccc(O)c(O)c1)C(=O)Nc1ccccc1 | inconclusive: 5.97 µM [inhibitor, full curve] |
| Brc1ccc(C2=Nc3cccc4cccc(c34)N2)o1 | inconclusive: 56.2 µM [inhibitor, partial curve] |
| COc1ccc(C(=O)Nc2ccc(S(=O)(=O)N3CCCC3)cc2)cc1 | inactive |
| O=C(CCCN1C(=O)c2cccc3cccc(c23)C1=O)N1CCN(c2ncccn2)CC1 | inconclusive: 89.1 µM [inhibitor, partial curve, poor fit] |
| Cc1cc2nn(-c3ccc(F)cc3)nc2cc1NC(=O)c1cc(Cl)ccc1Cl | inconclusive: 89.1 µM [inhibitor, single point] |
| CCCCN1C(=O)C(O)(c2c(C)[nH]c3ccccc23)c2cc(Br)ccc21 (configuration not stated) | inconclusive: 44.7 µM [inhibitor, partial curve, poor fit] |
| COc1cc(C(=O)N/N=C/c2coc3ccc(Cl)cc3c2=O)ccc1O | inconclusive: 79.4 µM [inhibitor, partial curve, poor fit] |
| CCc1ccc(NC(=O)N(Cc2c[nH]c3ccccc23)C2CCCCCC2)cc1 | inactive |
| CCOC(=O)C1=C(O)C(=O)N(c2ccc(S(N)(=O)=O)cc2)C1c1ccc([N+](=O)[O-])cc1 (configuration not stated) | inactive |
| Cn1c(=Nc2ccc(N3CCOCC3)cc2)ccc2ccccc21 | inactive |
| COc1cccc(NC(=O)c2ccc(CN3CCc4ccccc4C3)cc2)c1 | inconclusive: 35.5 µM [inhibitor, partial curve, poor fit] |
| COc1c(CC=C(C)C)cc(C2CC(=O)c3c(O)cc(O)cc3O2)cc1CC=C(C)C (configuration not stated) | inconclusive: 50.1 µM [inhibitor, partial curve, poor fit] |
| O=C(CN1C(=O)/C(=C/c2ccco2)SC1=S)NC1CCS(=O)(=O)C1 (configuration not stated) | inconclusive: 50.1 µM [inhibitor, partial curve] |
| CCCCN1C(=O)/C(=C/C=C2\Oc3ccccc3N2CC)SC1=S | inconclusive: 89.1 µM [inhibitor, partial curve, poor fit] |
| N#CC1=C(N)C(C#N)(C#N)C(c2ccc[nH]2)C2CCCC=C12 (configuration not stated) | inactive |
| O=S1(=O)c2ccc(Br)cc2N2CCC[C@@H]2CN1Cc1ccccc1 | inconclusive: 89.1 µM [inhibitor, partial curve, poor fit] |
| COc1ccccc1N1CCN(C(c2ccccc2)c2nnc(-c3ccccc3Cl)o2)CC1 (configuration not stated) | inconclusive: 3.55 µM [inhibitor, partial curve, poor fit] |
| CCOc1ccc(OCC)c(NC(=O)CN(c2ccc(C)cc2)S(=O)(=O)c2c(C)n[nH]c2C)c1 | inconclusive: 31.6 µM [inhibitor, partial curve, poor fit] |
| CCOc1ccc(NC(=O)c2ccc(NC(=O)c3ccc(NC(N)=O)cc3)cc2)cc1 | inconclusive: 89.1 µM [inhibitor, partial curve, poor fit] |
| COC(=O)c1ccccc1NC(=O)CSc1nc2sc3c(c2c(=O)[nH]1)CCCC3 | inconclusive: 89.1 µM [inhibitor, single point] |
| O=C1c2ccccc2C(=O)c2[nH]c(=O)[nH]c21 | inconclusive: 89.1 µM [inhibitor, single point] |

| SMILES | Potency |
| --- | --- |
| CCn1nc(NC(=O)c2cccs2)c2cc3ccccc3nc21 | inconclusive: 44.7 µM [inhibitor, partial curve, poor fit] |
| CC(C)(C)OC(=O)NOCC(=O)N(CC(=O)c1ccccc1)Cc1ccccc1 | inconclusive: 25.1 µM [inhibitor, single point] |
| CCOC(=O)N1CCN(c2cc(C)c(C(C)=O)cc2F)CC1 | inactive |
| [O-][n+]1cccc2c(Br)cc(Br)c(O)c21 | inconclusive: 50.1 µM [inhibitor, partial curve] |
| Clc1ccc2[nH]cc(-c3nnnn3-c3ccc4ccccc4c3)c2c1 | inconclusive: 56.2 µM [inhibitor, partial curve, poor fit] |
| CC1=[N+](C)c2c(ccc3cccnc23)C1(C)C | active: 44.7 µM |
| COC(=O)c1ccccc1NC(=O)CN1C(=O)COc2ccc(Cl)cc21 | inconclusive: 79.4 µM [inhibitor, single point] |
| CC(=O)N(C(C)=O)c1ncc2c([nH]c3ccccc32)c1C#N | inconclusive: 56.2 µM [inhibitor, partial curve, poor fit] |
| COc1cccc(C(=O)Oc2c(Sc3ccc(C)cc3)c(C)nn2C(C)(C)C)c1OC | inconclusive: 20 µM [inhibitor, partial curve, poor fit] |
| N#C/C(=C\c1cccnc1)C(=O)Nc1ccccc1[N+](=O)[O-] | inconclusive: 79.4 µM [inhibitor, partial curve, poor fit] |
| CCCCC[C@@H](/C=C/C1C(=O)C=C[C@H]1C/C=C\CCCC(=O)OC)OC(C)=O (some centres not stated) | inconclusive: 50.1 µM [inhibitor, partial curve, poor fit] |
| Cc1ccc(SCC(c2ccccc2)N2CCN(CCc3ccccc3)CCC2=O)cc1 (configuration not stated) | inconclusive: 89.1 µM [inhibitor, partial curve, poor fit] |
| OC1(c2ccc(Cl)cc2)CCN(Cc2cn[nH]c2-c2ccc(F)cc2)CC1 | inconclusive: 79.4 µM [inhibitor, partial curve, poor fit] |
| CCN(CC)CCCC(C)Nc1ccnc2cc(Cl)ccc12 (configuration not stated) | inconclusive: 89.1 µM [inhibitor, single point] |
| CC(C)(C)c1cccc(C2(O)C(=O)c3ccccc3C2=O)c1O | inactive |
| CC(=O)NNC(=O)CSc1nnc(-c2ccccc2)c(-c2ccccc2)n1 | inconclusive: 39.8 µM [inhibitor, full curve] |
| COc1ccc(NC(=O)CN2CCN(Cc3ccccc3Cl)S2(=O)=O)cc1Cl | inconclusive: 79.4 µM [inhibitor, partial curve, poor fit] |
| CSc1cccc(NC(=O)CN(Cc2ccc(Cl)cc2)S(C)(=O)=O)c1 | inactive |
| CC(Oc1ccc2c(c1)c1ccnc3c4ccccc4c(=O)n2c13)C(=O)NCCN1CCOCC1 (configuration not stated) | inconclusive: 17.8 µM [inhibitor, partial curve, poor fit] |
| Cc1ccc(NC(=O)CN2C(=O)S/C(=C\c3cccn3-c3cccc(C(=O)O)c3)C2=O)cc1C | inconclusive: 56.2 µM [inhibitor, partial curve, poor fit] |
